The results in this text go back to PubChem BioAssay AID1346428 (National Center for Advancing Translational Sciences (NCATS), 2018).

About 1,200 (2.5%) of roughly 48,000 compounds were called active. Not shown: some 2% with an inconclusive outcome.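 Rule for the calls: active = activation of at least 60% and not above a set upper limit (about 1 call in 100 departs from these limits); inconclusive = activation of 40% to 60%, or above that upper limit; inactive = activation under 40%.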 Some of the results follow.

In the test the target is Probable G-protein coupled receptor 32 (Homo sapiens) (UniProt O75388). Briefly: qHTS for Agonists of Human Resolvin D1 Receptor DRV1. Note: 0% is about no effect. Conditions: CHO-K1 GPR32 beta-arrestin PathHunter luminescence, 90 min; at 76.9 µM; active compounds read high; zero percent set by DMSO-only wells. The method, boiled down: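 Agonism was scored as beta-arrestin recruitment to ProLink-fused GPR32 in stably transfected CHO-K1 cells, giving a chemiluminescent beta-Gal signal; compounds were incubated 90 min at 37 °C.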
Sequence of UniProt O75388 (O75388 whole entry, looked up, the tested form may be a part): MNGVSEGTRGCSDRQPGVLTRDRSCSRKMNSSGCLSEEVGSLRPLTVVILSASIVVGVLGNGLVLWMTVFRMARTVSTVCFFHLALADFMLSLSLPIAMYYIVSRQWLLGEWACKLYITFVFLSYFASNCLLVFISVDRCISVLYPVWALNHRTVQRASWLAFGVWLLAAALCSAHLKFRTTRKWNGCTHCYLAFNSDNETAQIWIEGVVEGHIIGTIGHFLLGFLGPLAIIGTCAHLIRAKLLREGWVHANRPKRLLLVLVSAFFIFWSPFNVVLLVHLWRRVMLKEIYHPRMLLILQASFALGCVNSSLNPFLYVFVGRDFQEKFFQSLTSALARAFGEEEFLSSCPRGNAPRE
For orientation: In qHTS, concentration-response curves come from the screen itself.
For the molecule `Cc1ccc(C)c(NC(=O)Cn2c(=O)n(CCC(=O)NCc3ccc4c(c3)OCO4)c(=O)c3ccccc32)c1`, the activation is inactive: -12.9%.

As to `COc1cc(C2CC(=O)Nc3c2c(=O)[nH]c2ncnn32)ccc1O` (centres undefined), the activation was inactive: -0.932%. Under `CCOC(=O)c1cccc(Nc2ccc3cc(S(=O)(=O)N4CCCCC4)ccc3n2)c1` stands inactive: -12.5%; under `O=c1c2oc3ccccc3c2n(Cc2ccccc2)c(=O)n1Cc1ccc2c(c1)OCO2`, inactive: -19.1%; under `Cc1ccc(OCC(=O)Nc2ccc3nn(-c4ccc(Cl)cc4)nc3c2)cc1`, inactive: -6.86%.

Turning to `COc1cccc(CNC(=O)c2ccc(NC(=O)N3CCCCc4ccccc43)cc2)c1`, the activation is inactive: -2.27%.

In the case of `NOCC(=O)O`, the activation was inactive: -0.924%.

Consider `COc1cc2c(cc1OC)n(CC(=O)c1ccc(F)cc1)c(=O)n1nc(CCn3nc(C)cc3C)nc21`, for which the activation is inactive: -11.8%. For `CCCCc1nn2c(=O)cc(COC(=O)c3ccccc3NC(=O)c3ccccc3OC)nc2s1` the value was inactive: -14.3%; for `CCCCn1c(=O)c2oc3ccccc3c2n(CC(=O)Nc2cccc(Cl)c2)c1=O`, inactive: -9.95%. Under `COc1cccc(NS(=O)(=O)c2ccc3[nH]cc(C(=O)N(C)C4CCCCC4)c(=O)c3c2)c1` stands inactive: -1.74%; under `CCCC(=O)N1c2nc(C(C)C)nn2C2(CCCCC2)[C@@H]2CCCC[C@@H]21`, inactive: -20.3%. Consider `COc1ccc2oc(=O)cc(CN3CCN(c4ccccc4F)CC3)c2c1`, for which the activation is inactive: -9.58%. Under `O=C(Nc1cccc(Cl)c1)c1csnn1` stands inactive: 20.5%; under `Cc1ccc(-c2nc(SCC(=O)NCC3CCCO3)c(-c3ccc(C)cc3)[nH]2)cc1` (centres undefined), inactive: -22.7%. Under `NC(=O)c1cc(S(=O)(=O)NCC2CCC(C(=O)Nc3ccc(Cl)cc3)CC2)cs1` (centres undefined) stands inactive: 0%. Under `Cc1nnc(N2CCN(C(=O)Nc3cccc(C(F)(F)F)c3)CC2)c2nn(-c3ccccc3)c(C)c12` stands inactive: -4.8%.

In the case of `CC(C)c1cnc2c(c1SCc1cccc(C(F)(F)F)c1)c(=O)n(C)c(=O)n2C`, the activation was inactive: -8.66%. For `Cc1ccc(-n2c(=O)c3ccc(C(=O)NCc4ccco4)cc3n(Cc3cccc(Cl)c3)c2=O)cc1` the value was inactive: -2.95%. For `CCc1nc(SCC(=O)Nc2ccc(NC(C)=O)cc2)n[nH]1` the value was inactive: 4.78%; for `CC(C)CCNC(=O)CSCc1cnn(-c2ccccc2)c1-n1cccc1`, inactive: -10.1%; for `Cc1cccc(-n2c3nc(=O)n(C)c(=O)c-3cc3c(Cl)cccc32)c1C`, inactive: -3.92%. On to `O=C(Nc1ccc(F)cc1F)c1noc2c1CCc1ccccc1-2`, for which the activation was inactive: 15.3%. Under `COC(=O)c1ccccc1NC(=O)Cc1noc2ccc(C)cc12` stands inactive: -18.7%; under `COc1ccc(NC(=O)Cn2c(=O)n(Cc3nc(-c4ccccc4)no3)c(=O)c3cc4c(cc32)OCO4)cc1Cl`, inactive: -18.8%; under `Cc1cccn2c(=O)cc(COc3cccc(NC(=O)c4ccccc4F)c3)nc12`, inactive: -13.9%.

With `O=C(Nc1ccc(Cl)c(Cl)c1)N1CCC(c2ccccc2)C1` (centres undefined), the activation was inactive: 20.4%. Under `COc1ccc(Br)cc1CNC(=O)CN1CCSc2ccccc21` stands inactive: 4.38%; under `CCc1ccc(NC(=O)CC2C(=O)N(c3ccccc3)C(=O)N2C(C)C)cc1` (centres undefined), inactive: -5.93%.

Take `COc1ccc(CNc2ncnc3c2nnn3C)cc1`: the activation is inactive: -7.64%. Under `COc1ccc2c(c1)-c1nc(NC(=O)c3ccc(Cl)cc3)sc1CC2` stands inactive: -12.4%; under `Cc1ccc2oc(-c3ccc(Cl)c(NC(=O)c4ccc(-c5ccccc5[N+](=O)[O-])o4)c3)nc2c1`, inactive: 4.09%; under `Cc1nn(CC(=O)NCc2ccc(OC(C)C)cc2)c(=O)c2c(C)n(-c3ccc(Cl)cc3)nc12`, inactive: 0.841%. Under `COc1ccc(CN2C(=O)C(NC(=O)c3ccccc3C)(C(F)(F)F)N=C2c2ccccc2)cc1` (centres undefined) stands inactive: -7.11%; under `CCc1ccccc1NC(=O)Cn1nnc(C(=O)Nc2ccc(C)c(F)c2)c1N`, inactive: 0.0537%.

For the molecule `Cc1cccc(NC(=O)Cn2cc(C(=O)c3ccco3)c3ccccc32)c1C`, the activation is inactive: 11%. Regarding `CCCCCOc1ccc(C2c3c(oc4ccccc4c3=O)C(=O)N2c2nc(C)c(C)s2)cc1OCC` (centres undefined), the activation is inactive: -5.24%.

Take `CSc1ccc(CCNC(=O)Cn2ncc3c(=O)oc4ccc(C)cc4c32)cc1`: the activation is inactive: 4.4%. Under `COc1ccccc1CCNc1ncnc2c1nnn2C` stands inactive: 0.728%.

As to `Cc1ccc(C)c(CN2C(=O)c3ccccc3Sc3ccc(C(=O)NCc4cccs4)cc32)c1`, the activation is inactive: -18.9%. On to `CC1CCC(N2CC(=O)N(C3CCCC3)C(c3ccc(Cl)cc3)C2=O)CC1` (centres undefined), for which the activation was inactive: -13.3%. For `COc1ccc(NC(=O)c2c(N)c(C(=O)c3ccc(C)cc3)n3ccccc23)cc1OC` the value was inactive: 10.2%; for `CC(=O)c1cccc(NC(=O)c2noc3c2CSc2ccccc2-3)c1`, inactive: -11.1%.

As for `CCN1CCN(Cc2nc3cc(NC(=O)c4ccccc4[N+](=O)[O-])ccc3n2CC)CC1`, the activation was inactive: 2.68%.

Regarding `Cc1ccc(C)c(NC(=O)C2CCN(c3nn4c(=O)cc(C)nc4s3)CC2)c1`, the activation was inactive: -0.249%. For `Cc1cc(C)c2c(-n3cccc3)c(C(=O)NCCCN3CCCCC3)sc2n1` the value was inactive: -19.4%. For `COc1ccc(NC(=O)c2ccc3c(c2)c(C)c(C)n3Cc2ccc(F)cc2)cc1` the value was inactive: -11.7%; for `O=C(CCc1ccccc1)NCCc1csc(-c2cccc(F)c2)n1`, active: 85.5%; for `Cc1ccccc1OCCSc1nc(C)c(Cc2ccccc2)c(=O)[nH]1`, inactive: -11.6%. With `COc1cccc(CNC(=O)C(C)n2ccc3cc(S(=O)(=O)N4CCCCCC4)ccc32)c1` (centres undefined), the activation is inactive: 33.4%. Consider `COc1ccc(-c2nn(C)c3sc(C(=O)N4CCN(c5ccccc5F)CC4)cc23)cc1OC`, for which the activation was inactive: 20.3%. In the case of `Cc1ccc(-c2[nH]c3ccccc3c2SCCNC(=O)c2ccc(S(=O)(=O)N3CCOCC3)cc2)cc1`, the activation was inactive: -13.1%.

As to `COc1ccccc1-c1cc(NC(=O)COc2ccccc2Cl)n(-c2ccccc2)n1`, the activation is inactive: 31.6%. As to `Cc1cccc2c1-c1sc(C(=O)NCCc3ccc(Cl)cc3)cc1CO2`, the activation is inactive: 17.3%.
